Measurements taken from publication PMC4336329 (PLoS ONE, 2015).
The whole screen tested about 310,000 compounds, of which about 2,200 (0.71%) showed an effect of 50% or more. The effect is printed as a negative number. This is one part of the list.

These compounds were tested against human ether-à-go-go-related gene (hERG) potassium channel (human, UniProt Q12809) (assay: primary screen, population patch clamp on CHO cells stably expressing hERG).
human ether-à-go-go-related gene (hERG) potassium channel, sequence (Q12809 whole entry, looked up): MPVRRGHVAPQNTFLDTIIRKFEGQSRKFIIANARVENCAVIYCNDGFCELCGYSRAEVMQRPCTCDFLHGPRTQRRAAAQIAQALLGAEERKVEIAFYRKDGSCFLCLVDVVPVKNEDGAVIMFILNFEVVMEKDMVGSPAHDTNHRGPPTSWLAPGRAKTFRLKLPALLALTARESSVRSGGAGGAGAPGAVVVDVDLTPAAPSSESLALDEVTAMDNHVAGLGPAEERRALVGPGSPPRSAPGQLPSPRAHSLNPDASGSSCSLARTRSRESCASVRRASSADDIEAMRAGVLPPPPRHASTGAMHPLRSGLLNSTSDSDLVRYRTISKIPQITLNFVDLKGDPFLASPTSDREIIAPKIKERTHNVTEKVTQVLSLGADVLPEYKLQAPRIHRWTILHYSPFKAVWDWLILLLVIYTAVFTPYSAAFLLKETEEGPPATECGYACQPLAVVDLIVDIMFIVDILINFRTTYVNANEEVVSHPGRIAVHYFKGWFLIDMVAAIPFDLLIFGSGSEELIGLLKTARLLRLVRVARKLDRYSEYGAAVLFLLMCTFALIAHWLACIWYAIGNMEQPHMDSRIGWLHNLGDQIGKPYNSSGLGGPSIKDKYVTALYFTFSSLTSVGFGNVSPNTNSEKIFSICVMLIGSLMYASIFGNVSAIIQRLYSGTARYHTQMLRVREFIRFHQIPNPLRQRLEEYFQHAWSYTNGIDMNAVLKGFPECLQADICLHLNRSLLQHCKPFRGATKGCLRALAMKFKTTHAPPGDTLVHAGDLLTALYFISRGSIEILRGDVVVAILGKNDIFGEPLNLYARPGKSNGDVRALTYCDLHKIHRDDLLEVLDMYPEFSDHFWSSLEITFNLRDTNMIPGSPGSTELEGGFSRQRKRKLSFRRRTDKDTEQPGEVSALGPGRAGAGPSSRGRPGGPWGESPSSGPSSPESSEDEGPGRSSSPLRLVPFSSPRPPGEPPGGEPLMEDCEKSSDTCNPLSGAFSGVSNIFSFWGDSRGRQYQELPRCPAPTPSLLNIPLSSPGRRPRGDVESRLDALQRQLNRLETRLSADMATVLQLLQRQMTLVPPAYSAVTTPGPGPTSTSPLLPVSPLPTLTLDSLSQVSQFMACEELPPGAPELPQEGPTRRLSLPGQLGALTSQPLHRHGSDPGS

SMILES | hERG current change (%, negative = inhibition) at 1uM [%]
CCCOC(=O)c1ccc(NC(=O)c2ccccc2OC)cc1 | 11.2
O=C(c1ccc(Cl)c([N+](=O)[O-])c1)N(Cc1ccc(F)cc1)C1CCS(=O)(=O)C1 (centres unmarked) | 8.83
CCN1CCN(c2ccc(S(=O)(=O)N3CCOCC3)cc2NC(=O)c2ccc(C(F)(F)F)cc2)CC1 | 9.9
O=C(Nc1ccc(S(=O)(=O)Nc2ncccn2)cc1)c1cccc(S(=O)(=O)N2CCOCC2)c1 | 13.8
O=C(c1cc(COc2c(F)cccc2F)on1)N1CCC(c2ccccc2Cl)C1 (centres unmarked) | 10.5
CC1(OCON)CCCc2ccccc21 (centres unmarked) | 10.3
O=[N+]([O-])c1c(NCCO)cc(N2CCCCCC2)c2nonc12 | 16.9
O=C(CN1CCc2ccccc2C1)Nc1ccccc1Cl | -1.54
CCOC(=O)c1c(NC(=O)CSc2nc3ccccc3c(=O)n2-c2ccccc2)sc(C(C)=O)c1C | 6.03
COc1cccc(NC2=C(C#N)C(=O)NC(c3cccc(OC)c3O)S2)c1 (centres unmarked) | 11.2
Cc1cc(C(C)(C)C)cc(C)c1CC1=NCCN1.Cl | 6.64
COc1ccc(S(=O)(=O)N2CC(C)N(C(=O)N(C)C)C2C(C)C)cc1 (centres unmarked) | 15.9
COc1ccc(C(=O)COC(=O)CNC(=O)c2ccc(OC)cc2)cc1 | -31
COc1cc(Br)cc(/C=C/c2ccc3cccc(O)c3n2)c1OC | 9.98
c1csc(-c2csc3nc(CN4CCOCC4)nc(NCc4ccc5c(c4)OCO5)c23)c1 | 3.47
Cc1nc(N2CCN(S(=O)(=O)c3ccc(F)cc3)CC2)c2c(C)c(C)sc2n1 | 2.08
COC(=O)c1sccc1NC(=O)Nc1ccc(OC)c(OC)c1 | -22.5
Cc1[nH]c(=O)[nH]c(=O)c1S(=O)(=O)N1CCC(C(=O)N2CCN(c3cccc(C(F)(F)F)c3)CC2)CC1 | 18.8
CCOC(=O)N1CCN(C(=O)N2CCOCC2)CC1 | 14.3
COc1ccc(NS(=O)(=O)c2ccc(Cl)s2)cn1 | 7.65
Cc1cccc(OCC(=O)N(Cc2ccc(N(C)C)cc2)C2CCS(=O)(=O)C2)c1 (centres unmarked) | 7.82
CSc1nc2ncc(C(=O)O)c(N)n2n1 | 8.23

SMILES | hERG current change (%, negative = inhibition) at 1uM [%]
CCc1nnc(NC(=O)CSc2nnc(-c3ccccc3O)n2-c2ccc(C)cc2C)s1 | 17.3
Nc1nc(-c2ccc(-n3nncc3-c3ccco3)cc2)cs1 | 6.48
COc1ccc(C(=O)CSc2nc(N)nc(SC)c2C#N)cc1 | -2.25
Nc1c(N2CCCCC2)c2ccccc2oc1=O | -2.07
CCc1ccc(C(=O)OCC(=O)Nc2cccc(S(=O)(=O)NC3=NCCCCC3)c2)cc1 | 7.29
COc1cc(OC)cc(C(=O)NCC2CCCN(C(=O)c3csc(C(C)C)n3)C2)c1 (centres unmarked) | 7.04
C=CCN(C(=O)CCS(=O)(=O)c1cccc2nsnc12)c1ccccc1 | 5.05
O=C(COC(=O)C1=COCCO1)Nc1ccc(OC(F)F)cc1 | 6.65
COC(=O)C1=CN(c2cc(C)cc(C)c2)C=C(C(=O)OC)C1c1ccc(OC)c(O)c1 | 11.4
CN1CCN(S(=O)(=O)c2ccc(NC(=O)c3cccc(S(=O)(=O)N4CCCC4)c3)cc2)CC1 | -0.705
O=C(CCNC(=O)c1ccccc1Cl)Nc1cc(S(=O)(=O)N2CCOCC2)ccc1N1CCOCC1 | 8.53
COc1ccc(CNc2ccc(C)cc2)cc1Br | 10.7
COc1ccc(-c2noc(CN(C(=O)c3cccs3)C(C)C)n2)cc1 | -14.3
CN(C)/C=C(\C#N)C(=O)c1cccc(Oc2ccc(Br)cc2)c1 | 4.56
COc1ccc(NC(=O)N2CCOCC2)cc1 | 13.6
COc1cccc(C(=O)NCC(c2cccs2)N2CCOCC2)c1 (centres unmarked) | 1.54
Cc1cccc(C(=O)N2CCCC(Nc3ccc(C(C)C)cc3)C2)n1 (centres unmarked) | 3.61
O=C(CN(Cc1ccc(Cl)cc1)C(=O)c1csnn1)NCc1ccc(F)cc1 | -14.8
Cc1ccc(C(=O)NC2CCCc3c2cnn3-c2ccc(F)cc2F)cn1 (centres unmarked) | 13.2
COCCNC(=O)c1cc(-c2cccc(OC)c2)on1 | 19.7
Cc1cccc(COCC(Cc2ccccc2)N2CCN(C(=O)c3ccc(C(F)(F)F)cc3)CCC2=O)c1 (centres unmarked) | 2.27
CN1C(=O)c2cccc3c(S(=O)(=O)Nc4ccccc4F)ccc1c23 | 7.98
